For 20 variants, self-cleavage results are on record in the RNAGym collection of RNA variant scans (doi:10.7554/elife.90254).

B1: LINE1-full (parent)
chain: UACGUAGGUGGUUUUCCCCUGAUAGUGCUAAGGGGGCCUGGAAGUUUGGACUGGGCAGAGCUCAACACAGCGUGGCAAAGUGGCUGUGGCUAGACUGCCUCUCUGGAUUCCUCGUCACUCAGCAGGGCAUCUCUGAGAGAAAUGCC

The source gives no read counts; variants with many changes may rest on few reads.

Variants of B1 are the subject of the data set. The data set can be described thus: self-cleavage, relative activity (ratio to wild type); higher = more cleavage; in vitro, sequencing; the parent is a self-cleaving ribozyme.
Turning to UACGUAGGUGGUUUUCCCCUGAUAGUGCUAAGGGGGCCUGGAAGUUUGGACUGGGCAGAGCUCAACACAGCGUGGCAAAGUGGCUGUGGCUGGGCUGCCUCUCUGGAUUCCUCGUCACUCAGCAGGGCAUCUCUGAGAAAAAUGCC, the self-cleavage was 0.

In the case of UACGUAGGUGGUUUUCCCCUGAUAGUGCUAAGGGGGCCUGGAAGUUUGGACUGGGCAGAGCUCAACACAGCGUGGCAAAGUGGCUGUGGCCAGACUGCCUCUCUGGAUUCCCCAUCACUCAGCAGGGCAUCUCUGAGAGAAAUGCC, the self-cleavage was determined as 0.73.

On to UACGUAGGUGGUUUUCCCCUGAUAGUGCUAAGGGGGCCUGGAAGUUUGGACUGGGCAGAGCUCAACACAGCGUGGCAAAGUGGCUGUGGCUGGACUGCCUCUCCGGAUUCCUCGUCUCUCAGCAGGGCAUCUCUGAGAGAAAUGCC, for which the self-cleavage worked out at 0.09.

UACGUAGGUGGUUUUCCCCUGAUAGUGCUAAGGGGGCCUGGAAGUUUGGACUGGGCAGAGCUCAACACAGCGUGGCAAAGUGGCUGUGGCUUGAUUGCCUCUCUGGAUUCCUCGUCACUCAGCAGGGCGUCUCUGAGAGAAAUGCC: the self-cleavage was 0.19.

UACGUAGGUGGUUUUCCCCUGAUAGUGCUAAGGGGGCCUGGAAGUUUGGACUGGGCAGAGCUCAACACAGCGUGGCAAAGUGGCUGUGGCUUGACUGCCCCUCUGGAUUCCUCGUCGCUCAGCAUGGCAUCUCUGAGAGAAAUGCC: the self-cleavage turned out to be 2.12.

As for UACGUAGGUGGUUUUCCCCUGAUAGUGCUAAGGGGGCCUGGAAGUUUGGACUGGGCAGAGCUCAACACAGCGUGGCAAAGUGGCUGUGGCUGGUCUGCCUCUCUGGAUUCCUCGUCACUCUGCAGGGCAUCUCUGAGAGAAAUGCC, the self-cleavage was determined as 0.06.

Take UACGUAGGUGGUUUUCCCCUGAUAGUGCUAAGGGGGCCUGGAAGUUUGGACUGGGCAGAGCUCAACACAGCGUGGCAAAGUGGCUGUGGCUGGACUGCCUCUCUGGGUUCCUCGUCACUCUGCAGGGCAUCUCUGAGAGAAAUGCC: the self-cleavage amounted to 0.22.

Regarding UACGUAGGUGGUUUUCCCCUGAUAGUGCUAAGGGGGCCUGGAAGUUUGGACUGGGCAGAGCUCAACACAGCGUGGCAAAGUGGCUGUGGCUGGACUGCCUCUCUGGAUUCCUCGUCACUCAGCAGGGCAUCCCUGGGAGAAAUGCC, the self-cleavage came out at 0.32.

For the variant UACGUAGGUGGUUUUCCCCUGAUAGUGCUAAGGGGGCCUGGAAGUUUGGACUGGGCAGAGCUCAACACAGCGUGGCAAAGUGGCUGUGGCUCGACUGCCUCUCUGGAUUCCUCGUCACUCAGCAGGGCAUCUCUAAGAGUAAUGCC, the self-cleavage was 0.

UACGUAGGUGGUUUUCCCCUGAUAGUGCUAAGGGGGCCUGGAAGUUUGGACUGGGCAGAGCUCAACACAGCGUGGCAAAGUGGCUGUGGCUGGACUACCUCUCUGGAUUCCUCGUCACUCGGCAGGGCAUCUCUGAGAGAAAUGCC: the self-cleavage turned out to be 0.08.

As for UACGUAGGUGGUUUUCCCCUGAUAGUGCUAAGGGGGCCUGGAAGUUUGGACUGGGCAGAGCUCAACACAGCGUGGCAAAGUGGCUGUGGCUGGACUGCCACUCUGGAUUCCUCGUCUCUCAGCAGGGCAUCUCUGAGAGAAAUGCC, the self-cleavage stood at 0.12.

On to UACGUAGGUGGUUUUCCCCUGAUAGUGCUAAGGGGGCCUGGAAGUUUGGACUGGGCAGAGCUCAACACAGCGUGGCAAAGUGGCUGUGGCUGGACUGCCUCUCUGGAAUCCUCGUCGCUCAGCAGGGCAUCUCUGAGAGAAAUGCC, for which the self-cleavage is 0.

Take UACGUAGGUGGUUUUCCCCUGAUAGUGCUAAGGGGGCCUGGAAGUUUGGACUGGGCAGAGCUCAACACAGCGUGGCAAAGUGGCUGUGGCUGGACUGCCUCUCUGGAUUCCUCGUCUCUCAGCAGGGCACCUCUGAGAGAAAUGCC: the self-cleavage came out at 0.14.

Consider UACGUAGGUGGUUUUCCCCUGAUAGUGCUAAGGGGGCCUGGAAGUUUGGACUGGGCAGAGCUCAACACAGCGUGGCAAAGUGGCUGUGGCCAGACUGCCUCUCUGGAUUCCACGUCACUCAGCAGGGUAUCUCUGAGAGAAAUGCC, for which the self-cleavage is 0.82.

For UACGUAGGUGGUUUUCCCCUGAUAGUGCUAAGGGGGCCUGGAAGUUUGGACUGGGCAGAGCUCAACACAGCGUGGCAAAGUGGCUGUGGCUGGACUGCCUCUCUGGAUUCCUCGUCACUCAGCAGGGCACCUCUGAGUGAAAUGCC, the self-cleavage came out at 0.19.

For the variant UACGUAGGUGGUUUUCCCCUGAUAGUGCUAAGGGGGCCUGGAAGUUUGGACUGGGCAGAGCUCAACACAGCGUGGCAAAGUGGCUGUGGCUUGACUGCCUCUCUGGGUUCCUCGUCACUCAGCAGGGCAUCUCUGAGAGAAGUGCC, the self-cleavage came to 0.68.

Regarding UACGUAGGUGGUUUUCCCCUGAUAGUGCUAAGGGGGCCUGGAAGUUUGGACUGGGCAGAGCUCAACACAGCGUGGCAAAGUGGCUGUGGCUGGACUGCCACUUUGGAUUCCUCGUCACUCAGCAGGGCAUCUCUGAGAGAAAUGCC, the self-cleavage stood at 0.1.

For the variant UACGUAGGUGGUUUUCCCCUGAUAGUGCUAAGGGGGCCUGGAAGUUUGGACUGGGCAGAGCUCAACACAGCGUGGCAAAGUGGCUGUGGCUCGACUGCCUCUCUGGAUUCCUCGUCACACAGCAGGGCGUCUCUGAGAGAAAUGCC, the self-cleavage is 0.18.

For UACGUAGGUGGUUUUCCCCUGAUAGUGCUAAGGGGGCCUGGAAGUUUGGACUGGGCAGAGCUCAACACAGCGUGGCAAAGUGGCUGUGGCUGGACUGCCUCUCUGUAUUCCUCGUCACUCAGCAGGGCAUCACUGAGAGAAAUGCC, the self-cleavage came to 0.04.

As for UACGUAGGUGGUUUUCCCCUGAUAGUGCUAAGGGGGCCUGGAAGUUUGGACUGGGCAGAGCUCAACACAGCGUGGCAAAGUGGCUGUGGCUCGACUGCCUCUCUGGAUUCCUCGUCACUCAGCGUGGCAUCUCUGAGAGAAAUGCC, the self-cleavage amounted to 0.05.
